# Test results reported in paper PMC5540273 (PLoS ONE, 2017).
# Most of the strong results are listed elsewhere, so they are rarer here than in the full data.
# Key:
# Conditions in all cases: concentration: 1 μM,replicates: in singlicate; n = 1
# TNK1 = test system: TNK1
# TNK2 = test system: TNK2
# TNNI3K = test system: TNNI3K
# TRKA = test system: T1, TRKA
# T1 construct: gene NTRK1
# TRKB = test system: TRKB
# TRKC = test system: T2, TRKC
# T2 construct: gene NTRK3
# TRPM6 = test system: TRPM6
# TSSK1B = test system: TSSK1B
# TSSK3 = test system: TSSK3
# TTK = test system: TTK
# 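Further: KINOMEscan kinase panel screen.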
Structure (SMILES),%Inh (TNK1) [%],%Inh (TNK2) [%],%Inh (TNNI3K) [%],%Inh (TRKA) [%],%Inh (TRKB) [%],%Inh (TRKC) [%],%Inh (TRPM6) [%],%Inh (TSSK1B) [%],%Inh (TSSK3) [%],%Inh (TTK) [%]
O=C1NC(=O)C(c2ccccc2)=C1Nc1ccc(Cl)c(C(=O)O)c1 [SB-390532],2,15,17,0,60,45,42,29,0,0
O=C(O)c1ccc(-c2nc(-c3ccc(F)cc3)c(-c3ccncc3)[nH]2)cc1 [SB-202620],15,0,3,94,0,0,27,0,8,32
O=C1NC(=O)C(c2ccc(Cl)cc2)=C1Nc1cccc(O)c1 [SB-333613],22,0,9,19,10,35,9,2,43,0
O=C1NC(=O)C(c2ccc(Cl)cc2)=C1Nc1ccc(O)c(Cl)c1 [SB-405367],0,0,0,8,38,38,0,0,0,3
O=C1NC(=O)C(c2ccccc2)=C1Nc1cc(Cl)c(O)c(Cl)c1 [SB-390530],0,0,0,24,28,22,0,19,0,23
Cc1ccc(C)c(Oc2nccc(-c3c(-c4ccc(F)cc4)ncn3C3CCNCC3)n2)c1.O=C(O)C(F)(F)F.O=C(O)C(F)(F)F.O=C(O)C(F)(F)F [SB-284852],15,0,0,0,0,0,0,0,0,0
O=C1NC(=O)C(c2ccccc2Cl)=C1Nc1cccc(C(=O)O)c1 [SB-390526],0,2,11,6,7,17,0,4,8,0
O=C1NC(=O)c2c1c(-c1ccccc1)cc1[nH]c3ccc(O)cc3c21,11,13,17,70,31,10,15,35,3,0
Cc1cc(C)cc(Oc2nccc(-c3c(-c4ccc(F)cc4)ncn3C3CCNCC3)n2)c1.O=C(O)C(F)(F)F.O=C(O)C(F)(F)F.O=C(O)C(F)(F)F [SB-284851],10,0,0,0,0,0,0,0,0,12
O=C1NC(=O)C(c2ccccc2Cl)=C1Nc1ccccc1 [SB-376715],0,0,13,47,0,10,0,0,12,0
CSc1ccc(NC2=C(c3cccc(Cl)c3)C(=O)NC2=O)cc1 [SB-341528],2,0,0,7,19,17,0,0,0,19
O=C1NC(=O)C(c2ccc(Cl)cc2)=C1Nc1ccccc1 [SB-317661],0,0,0,0,23,10,26,0,0,0
O=C1NC(=O)C(c2ccc(Cl)cc2)=C1Nc1cccc(C(=O)O)c1 [SB-360737],0,10,0,0,5,20,48,12,1,0
CS(=O)(=O)c1ccccc1-c1nc(-c2ccc(F)cc2)c(-c2ccncc2)[nH]1 [SB-213663],0,0,0,31,27,6,0,0,43,0
COc1ccc(C2=C(Nc3cccc(Cl)c3)C(=O)NC2=O)cc1 [SB-326892],36,0,0,0,0,0,0,0,0,0
COc1cccc(C2=C(Nc3ccc(SC)cc3)C(=O)NC2=O)c1 [SB-331032],4,0,0,18,11,9,0,0,15,0
